{"source": "ChEMBL document CHEMBL1157539", "about": "“Thousands of chemical starting points for antimalarial lead identification” (Nature, 2010)", "note": "Whole data set: some 13,000 compounds, median “IFI” near 4, cut for the highest 2% near 17. The list shows a part of the results.", "data": [{"experiment": "GSK_TCMDC: Inhibition Frequency Index (IFI). The number of non-kinase HTS assays where a compound showed > 50 % inhibition, expressed as a percentage of the number of such assays in which the compound was tested (-0 is zero)", "type": "functional", "units": {"IFI": "%"}, "values": [{"smiles": "COc1cc(-c2nc(-c3ccccc3)c(-c3ccccc3)[nH]2)cc(OC)c1O", "IFI": 5.84}, {"smiles": "Cc1cc(C(=O)CSc2nc3ccccc3n2-c2ccccc2)c(C)n1C1CCS(=O)(=O)C1", "note": "(configuration not stated)", "IFI": 1.89}, {"smiles": "Cc1cccc(CN2CCCN(Cc3ccc(C(=O)Nc4ccc(C(C)(C)C)cc4)cc3)CC2)c1", "IFI": 15.4}, {"smiles": "CN1CCCC(CN2CCN(Cc3ccc(-c4cccc(-c5nc6cc(F)ccc6[nH]5)c4)cc3)CC2)C1", "note": "(configuration not stated)", "IFI": 12.5}, {"smiles": "O=C(CCCCCNC(=O)c1ccc(O)c(-c2ccc(Cl)c(Cl)c2)c1)NCCc1ccc(Cl)c(Cl)c1", "IFI": 1.48}, {"smiles": "Cc1[nH]c(C)c(-c2ccc(OCc3cc(C(F)(F)F)cc(C(F)(F)F)c3)nc2)c(=O)c1Cl", "IFI": 4.59}, {"smiles": "CC(Cl)=CCc1c(C)nc2c(ccc3ccccc32)c1O", "IFI": 0.77}, {"smiles": "CC1(C)N=C(N)N=C(N)C1c1ccc(Cl)cc1", "note": "(configuration not stated)", "IFI": -0}, {"smiles": "Cc1nc2ccc3ccc(CNc4ccc5c(c4)CN([C@@H](CCC(=O)O)C(=O)O)C5=O)cc3c2c(=O)[nH]1", "IFI": 3.73}, {"smiles": "CCCCC([C@@H](Cc1ccc2ccccc2c1)C(=O)N[C@H](C(=O)NC)C(C)(C)C)N(O)C=O", "note": "(some centres not stated)", "IFI": 0.71}, {"smiles": "COc1ccc(O)c(C(=O)c2cnc3c(c2)c(-c2ccc(F)cc2)c(C#N)c(=O)n3C)c1", "IFI": 2.65}, {"smiles": "O=C(Nc1cccnc1)c1cn(-c2ccccc2)nc1-c1cccs1", "IFI": 2.08}, {"smiles": "CC(NCCC1CCC(NC(=O)N[C@H](C)C(O)(c2ccccc2)c2ccccc2)CC1)c1cccc2ccccc12", "note": "(some centres not stated)", "IFI": 11.6}, {"smiles": "O=C(N[C@@H](Cc1ccccc1)C(=O)NCCN1CCCCC1)c1ccc(O)c(-c2cccc(C(F)(F)F)c2)c1", "IFI": 2.19}, {"smiles": "Cc1cccc(Nc2nc(NCCCCN)nc3cc[nH]c(=O)c23)c1", "IFI": 8.33}, {"smiles": "COc1ccc(CNCc2cccc(-c3cccc(-c4nc5ccccc5[nH]4)c3)c2)cc1", "IFI": 7.55}, {"smiles": "CCCCCCCCCn1c(NCc2cc(Cl)ccc2O)nc2ccccc21", "IFI": 4.2}, {"smiles": "CCC(C(=O)Nc1ccccc1)n1nc(-c2ccc(C)c(S(=O)(=O)N3CCCCC3)c2)ccc1=O", "note": "(configuration not stated)", "IFI": 2.38}, {"smiles": "Cc1ccc(NC(=O)c2ccc(CN3CCCN(Cc4cccc(Cl)c4)CC3)cc2)cc1C", "IFI": 8.94}, {"smiles": "COc1cc2nc(NCCc3ccccc3)nc(N(C)Cc3ccccc3)c2cc1OC", "IFI": 11}, {"smiles": "CCN1CCC(N2CCC(C(=O)Nc3cccc(-c4cccc(Cl)c4)c3)CC2)CC1", "IFI": 4.76}, {"smiles": "Cc1nc(N)nc(N)c1CCCOc1ccccc1Cl", "IFI": 2.13}, {"smiles": "COc1ccc2nccc(N3CCC(SCCNCc4ccc5c(n4)NC(=O)CO5)C3)c2n1", "note": "(configuration not stated)", "IFI": 3.7}, {"smiles": "COc1ccc2nccc(N3CCN(CCNCc4ccc5c(n4)NC(=O)CS5)CC3)c2c1", "IFI": 5.26}, {"smiles": "O=C(Cn1c(CCc2cccc(F)c2F)nc(=O)c2cccnc21)N(Cc1ccc(-c2ccc(C(F)(F)F)cc2)cc1)C1CCN(C2CCSCC2)CC1", "IFI": 11.1}, {"smiles": "COc1cccc(-c2cc(C(=O)Nc3ccc4[nH]c(-c5ccccc5)nc4c3)[nH]n2)c1", "IFI": 7.41}, {"smiles": "Nc1nc2c(c(=O)[nH]1)CN(S(=O)(=O)c1ccc(C(=O)N[C@@H](CCC(=O)O)C(=O)O)cc1)CC2", "IFI": 1.43}, {"smiles": "Cc1ccc(NC(=O)c2ccc3ncccc3c2)cc1OC1CCN(Cc2ccsc2)CC1", "IFI": 3.08}, {"smiles": "COc1ccc(NC(=O)c2ccc(-c3cccc(OCc4ccccc4)c3)cc2)cc1N1CCN(C)CC1", "IFI": 9.93}, {"smiles": "COC(=O)c1cccc(CNCc2cccc(-c3ccc(-c4nc5cccc(C)c5[nH]4)s3)c2)c1", "IFI": 5.88}, {"smiles": "Cc1cc(N/N=C/c2ccccc2[N+](=O)[O-])c2ccc(F)cc2n1", "IFI": 0}, {"smiles": "COc1ccc(NC(=O)c2ccc(OCCCCCCCOc3ccc(C(=O)Nc4ccc(OC)c(N5CCN(C)CC5)c4)cc3)cc2)cc1N1CCN(C)CC1", "IFI": 9.09}, {"smiles": "CCOCCCNc1sc(S(=O)(=O)c2ccccc2)nc1S(=O)(=O)c1ccc(C)cc1", "IFI": 2.33}, {"smiles": "CC(C)[C@H]1CC[C@H](C)C[C@@H]1OC(=O)N[C@@H](Cc1ccc(O)cc1)C(=O)NC1CCN(Cc2ccc(OCCCN(C)C)cc2)C1", "note": "(some centres not stated)", "IFI": 4.29}, {"smiles": "CCOc1ccc(Nc2ccc3nonc3c2S(=O)(=O)Nc2ccc(OCC)cc2)cc1", "IFI": 0.76}, {"smiles": "O=C(Nc1ccccc1Br)N[C@@H]1CCN(c2ccnc3ccccc23)C1", "IFI": 5.15}, {"smiles": "CCOc1ccc(C(=O)N2CCOC(CCN3CCC(c4ccccc4)CC3)(c3ccc(Cl)c(Cl)c3)C2)cc1", "note": "(configuration not stated)", "IFI": 7.38}, {"smiles": "CC(C)CN1CCN(c2nc(C#N)c3c(c2C(=S)NC2CCCCC2)CC(C)(C)OC3)CC1", "IFI": 2.1}, {"smiles": "Cc1ccccc1OCCCc1c(C)nc(N)nc1N", "IFI": 0.77}, {"smiles": "Cc1cc(-c2ccc3c(c2)CCN(CCC2CCC(NC(=O)/C=C/c4ccc(F)cc4)CC2)CC3)on1", "note": "(configuration not stated)", "IFI": 6.47}, {"smiles": "O=C(Nc1ccc(Br)cc1)N(CCN1CCOCC1)CC(O)COc1ccc(Cl)c(F)c1", "note": "(configuration not stated)", "IFI": 2.11}, {"smiles": "N=C(N)NC(=O)Nc1cc(Cl)c(Cl)c(Cl)c1", "IFI": 2.96}, {"smiles": "Cc1cccn2c(=O)c3cc(C(=O)NC4CCCCC4)c(=N)n(CCCn4ccnc4)c3nc12", "IFI": -0}, {"smiles": "COc1ccc(CN(C)CCCc2ccc(NC(=O)c3cccc4c(=O)c5cccc(F)c5[nH]c34)cc2)cc1OC", "IFI": 12.9}, {"smiles": "O=C(c1ccccc1F)N(Cc1ccc(Cl)cc1)c1ccccn1", "IFI": 0}, {"smiles": "NCCCNc1nc(Nc2cccc(C(N)=O)c2)c2c(=O)[nH]ccc2n1", "IFI": -0}, {"smiles": "Cc1[nH]c(C)c(-c2ccc(Oc3ccc(F)cc3)cc2)c(=O)c1Br", "IFI": 3.85}, {"smiles": "Oc1ccc(CCNCCCCCNCCCc2ccc(Cl)cc2)cc1O", "IFI": 6.25}, {"smiles": "COc1cc(N(Cc2ccc(F)cc2)C(=O)c2ccc(-c3ccccc3)cc2)ccc1OCCN1CCCC1", "IFI": 5.04}, {"smiles": "CN(C)C(=O)CC(=O)NCc1c(Cl)cccc1Cl", "IFI": -0}, {"smiles": "CCOc1ccc2c(=NN=Cc3ccc(OC)c(OC)c3)cc(C)[nH]c2c1", "IFI": 4.29}, {"smiles": "CC(C)c1ccc(NC(=O)Nc2ccc(CCNCCCc3ccccc3)cc2)cc1", "IFI": 3.62}, {"smiles": "O=C(/C=C/c1ccc(Cl)c(Cl)c1)NC1CCN(Cc2ccc(O)cc2)CC1", "IFI": 0.67}, {"smiles": "CCNc1cc(C(=O)N[C@@H](Cc2ccc(F)c(F)c2)[C@H](O)CNC2CCCCC2)cc(N2CCCCS2(=O)=O)c1", "IFI": 2.1}, {"smiles": "Cc1cc(=NN=Cc2ccccc2F)c2ccccc2[nH]1", "IFI": 3.62}, {"smiles": "CCC(COCc1ccc(Cl)cc1)N(C)CCN(C)C(CC)COCc1ccc(Cl)cc1", "note": "(configuration not stated)", "IFI": 19.6}, {"smiles": "COc1ccc(CN(C)Cc2ccc(NC(=O)c3cccc4c(=O)c5cccc(C)c5[nH]c34)cc2)cc1OC", "IFI": 1.57}]}]}
